Here are results for 6 sequences from the supplement of paper PMC12458215.

± gives the uncertainty stated by the source.

One data set concerns HEK293T. The data set is described as follows: plasma membrane surface immunostaining intensity (anti-HA, deep receptor scanning) (arbitrary fluorescence units); higher = higher plasma membrane expression. As to conditions: GPCR class: A.
With “MAADLGPWNDTINGTWDGDELGYRCRFNEDFKYVLLPVSYGVVCVPGLCLNAVALYIFLCRLKTWNASTTYMFHLAVSDALYAASLPLLVYYYARGDHWPFSTVLCKLVRFLFYTNLYCSILFLTCISVHRCLGVLRPLRSLRWGRARYARRVAGAVWVLVLACQAPVLYFVTTSARGGRVTCHDTSAPELFSRFVAYSSVMLGLLFAVPFAVILVCYVLMARRLLKPAYGTSGGLPRAKRKSVRTIAVVLAVFALCFLPFHVTRTLYYSFRSLDLSCHTLNAINMAYKVTRPLASANSCLDPVLYFLAGQRLVRFARDAKPPTGPSPATPARRRLGLRRSDRTDMQRIEDVLGSSEDSRRTESTPAGSENTKDIRL [P2RY2]”, the “plasma membrane surface immunostaining intensity” value turned out to be 6180 ± 130.
Take “MAAISTSIPVISQPQFTAMNEPQCFYNESIAFFYNRSGKHLATEWNTVSKLVMGLGITVCIFIMLANLLVMVAIYVNRRFHFPIYYLMANLAAADFFAGLAYFYLMFNTGPNTRRLTVSTWLLRQGLIDTSLTASVANLLAIAIERHITVFRMQLHTRMSNRRVVVVIVVIWTMAIVMGAIPSVGWNCICDIENCSNMAPLYSDSYLVFWAIFNLVTFVVMVVLYAHIFGYVRQRTMRMSRHSSGPRRNRDTMMSLLKTVVIVLGAFIICWTPGLVLLLLDVCCPQCDVLAYEKFFLLLAEFNSAMNPIIYSYRDKEMSATFRQILCCQRSENPTGPTEGSDRSASSLNHTILAGVHSNDHSVV [LPAR1]”: the “plasma membrane surface immunostaining intensity” value was 3480 ± 810.
“MAAQNGNTSFTPNFNPPQDHASSLSFNFSYGDYDLPMDEDEDMTKTRTFFAAKIVIGIALAGIMLVCGIGNFVFIAALTRYKKLRNLTNLLIANLAISDFLVAIICCPFEMDYYVVRQLSWEHGHVLCASVNYLRTVSLYVSTNALLAIAIDRYLAIVHPLKPRMNYQTASFLIALVWMVSILIAIPSAYFATETVLFIVKSQEKIFCGQIWPVDQQLYYKSYFLFIFGVEFVGPVVTMTLCYARISRELWFKAVPGFQTEQIRKRLRCRRKTVLVLMCILTAYVLCWAPFYGFTIVRDFFPTVFVKEKHYLTAFYVVECIAMSNSMINTVCFVTVKNNTMKYFKKMMLLHWRPSQRGSKSSADLDLRTNGVPTTEEVDCIRLK [PROKR2]”: the “plasma membrane surface immunostaining intensity” value was found to be 485 ± 21.
Still for that read-out and setting: the result for “MACNSTSLEAYTYLLLNTSNASDSGSTQLPAPLRISLAIVMLLMTVVGFLGNTVVCIIVYQRPAMRSAINLLLATLAFSDIMLSLCCMPFTAVTLITVRWHFGDHFCRLSATLYWFFVLEGVAILLIISVDRFLIIVQRQDKLNPRRAKVIIAVSWVLSFCIAGPSLTGWTLVEVPARAPQCVLGYTELPADRAYVVTLVVAVFFAPFGVMLCAYMCILNTVRKNAVRVHNQSDSLDLRQLTRAGLRRLQRQQQVSVDLSFKTKAFTTILILFVGFSLCWLPHSVYSLLSVFSQRFYCGSSFYATSTCVLWLSYLKSVFNPIVYCWRIKKFREACIELLPQTFQILPKVPERIRRRIQPSTVYVCNENQSAV [GPR45]” reads 5440 ± 330; that for “MAGNCSWEAHPGNRNKMCPGLSEAPELYSRGFLTIEQIAMLPPPAVMNYIFLLLCLCGLVGNGLVLWFFGFSIKRNPFSIYFLHLASADVGYLFSKAVFSILNTGGFLGTFADYIRSVCRVLGLCMFLTGVSLLPAVSAERCASVIFPAWYWRRRPKRLSAVVCALLWVLSLLVTCLHNYFCVFLGRGAPGAACRHMDIFLGILLFLLCCPLMVLPCLALILHVECRARRRQRSAKLNHVILAMVSVFLVSSIYLGIDWFLFWVFQIPAPFPEYVTDLCICINSSAKPIVYFLAGRDKSQRLWEPLRVVFQRALRDGAELGEAGGSTPNTVTMEMQCPPGNAS [MRGPRF]”, 6500 ± 40.

Still in this data set, the particulars now being: GPCR class: B.
For the sequence “MAGLGASLHVWGWLMLGSCLLARAQLDSDGTITIEEQIVLVLKAKVQCELNITAQLQEGEGNCFPEWDGLICWPRGTVGKISAVPCPPYIYDFNHKGVAFRHCNPNGTWDFMHSLNKTWANYSDCLRFLQPDISIGKQEFFERLYVMYTVGYSISFGSLAVAILIIGYFRRLHCTRNYIHMHLFVSFMLRATSIFVKDRVVHAHIGVKELESLIMQDDPQNSIEATSVDKSQYIGCKIAVVMFIYFLATNYYWILVEGLYLHNLIFVAFFSDTKYLWGFILIGWGFPAAFVAAWAVARATLADARCWELSAGDIKWIYQAPILAAIGLNFILFLNTVRVLATKIWETNAVGHDTRKQYRKLAKSTLVLVLVFGVHYIVFVCLPHSFTGLGWEIRMHCELFFNSFQGFFVSIIYCYCNGEVQAEVKKMWSRWNLSVDWKRTPPCGSRRCGSVLTTVTHSTSSQSQVAASTRMVLISGKAAKIASRQPDSHITLPGYVWSNSEQDCLPHSFHEETKEDSGRQGDDILMEKPSRPMESNPDTEGCQGETEDVL [PTH2R]”, the “plasma membrane surface immunostaining intensity” value worked out at 1640 ± 550.
